# Assay results taken from PubChem BioAssay (NCATS).
# The list shows a part of the results. Shown are side measurements of this screen, not its main read-out; they come without a call. Most of these compounds were active or inconclusive in the main read-out, so they are no random draw. Potencies come from curve fits of mixed quality, noted in brackets.
# Test: qHTS Assay for Lipid Storage Modulators (AID 1519)
# Settings: Drosophila S3 cells, BODIPY lipid droplet/cell ratio, laser cytometry, cells loaded with oleic acid
# In short: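 Cells seeded at 5,000 per well were treated with compounds over a concentration series and loaded with oleic acid (400 uM, as added). Lipid droplet fluorescence (488 nm excitation, 500-530 nm channel) was read by laser-scanning cytometry and normalized to 20 uM Triacsin C.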
# [1] = measured here: cell count channel max response
# [2] = measured here: cell number channel AC50
# [3] = measured here: lipid (BODIPY) channel AC50
# [4] = measured here: lipid channel max response
# Tags give direction and shape of the fitted curve.
SMILES,max response [1],AC50 [2],AC50 [3],max response [4]
C[N+]1(C)CCCC(OC(=O)C(O)(c2ccccc2)c2ccccc2)C1 (stereo not drawn),30.9%,"39.8 µM [rising, single point]","39.8 µM [rising, single point]",44.1%
Cc1cc(NC(=O)C2=C(O)c3ccccc3S(=O)(=O)N2C)no1,31.1%,"25.1 µM [rising, partial curve, poor fit]","35.5 µM [rising, single point]",54.3%
COc1ccc2[nH]c(=O)c3c(c2c1)OC(C)(C)C=C3,108%,"5.01 µM [rising, full curve]","4.47 µM [rising, full curve]",133%
FC(F)(F)c1ccccc1-c1cc(NCc2cccs2)ncn1,37%,"5.62 µM [rising, partial curve]","3.98 µM [rising, partial curve]",40.2%
COc1ccc(CNc2ccnc(-c3c(C)noc3C)n2)c(OC)c1,4.98%,"1 µM [rising, partial curve]","1 µM [rising, partial curve]",11.6%
COc1ccc(C(=O)N2CCC3(CC2)CN(c2cccc(-c4ccccc4)c2)C3)cc1,11.5%,"3.16 µM [rising, single point]","3.16 µM [rising, partial curve]",9.86%
COc1ncc2nc(-c3cn(C)c4ccccc34)c(=O)n(C)c2n1,33.5%,"2.51 µM [rising, full curve]","2.51 µM [rising, full curve]",40.4%
